# Measurements as given in PubChem BioAssay AID686978 (National Center for Advancing Translational Sciences (NCATS), 2013).
# In all, about 420,000 compounds went through this assay and about 64,000 (15%) were called active. Inconclusive results, whose numbers are uncertain, are shown with a selection of clear calls. Calls follow the shape of the dose curve; as a rule, active = well fitted inhibition curve with a large enough effect; inconclusive = small, poorly fitted or top-dose-only effect; inactive = flat fitted curve, though single readings scatter. No potency is given beside an inconclusive call; the fits are too rough.
# Assay: qHTS for Inhibitors of human tyrosyl-DNA phosphodiesterase 1 (TDP1): qHTS in cells in absence of CPT; also: nearly all actives have a fitted effect of over 55% in size
# Details: DT40 Tdp1-/- hTDP1 cells, no CPT, ATP luminescence, 48 h; activity change, negative = growth inhibition: at 46.2 µM (top of the series) unless noted
# Source text: Human tyrosyl-DNA phosphodiesterase 1 (TDP1) is a novel repair gene, and we propose to use it as a new target for anticancer drug development. TDP1 is not an essential protein, but under treatment with topoisomerase I poison (camptothecin: CPT), TDP1 works as a critical factor for cell survival. To directly identify novel TDP1 inhibitors active in a cellular environment, we have knocked-out the Tdp1 gene in chicken DT40 cells (Tdp1-/-) and generated a complemented counterpart cells that contains a stable transfection of the human TDP1 gene (Tdp1-/-;hTDP1 cells). For the primary screen, Tdp1-/-;hTDP1 cells will be exposed to small molecules in the presence or absence of CPT, and their growth kinetics will be evaluated after 48 hours by measuring ATP activity. […] The hit compounds will then be evaluated in the presence or absence of CPT using Tdp1-/- cells. […] In tertiary assays, biochemical gel-based assays will be used to assess whether the hit compounds specifically target TDP1.
# To this end, we have screened this cell line against the MLSMR in two primary screens. In one screen we add CPT and in the other we screen in the absence of CPT; this AID represents the screen where CPT was absent.
# NIH Chemical Genomics Center [NCGC]
# NIH Molecular Libraries Probe Centers Network [MLPCN]
# Assay Submitter (PI): Yves Pommier, NCI
# DT40-hTDP1 cells without 20 nM Camptothecin (add 20 microL of DMSO in 1 L of cell culture medium) were dispensed at 400 cells/5microL/well in tissue culture treated 1536-well white wall/solid bottom assay plates (Greiner Bio-One North America, NC, U.S.A.) using a Multidrop Combi 8 channel dispenser (Thermo Fisher, Waltham, MA, USA). 23 nL compounds and controls were transferred using the pin tool (Kalypsys, San Diego, CA, USA) to the assay plates. The assay plates were then incubated at 37 masculineC for a minimum 48 hr. Three microL of Cell Titer Glo solution was added to the plates and incubated at RT in dark for 30 min. Luminescence was read using ViewLux (Perkin Elmer) with 1 sec exposure slow speed, high gain and 2x binning.
# % is scaled to controls: 0 for no effect and ±100 for the full control effect; potency is read from the fitted curve at half-maximal effect; tags tell the direction and shape of the fitted curve.
SMILES,Potency,"activity change, negative = growth inhibition"
CC1CC(C)CN(CCC(=O)Nc2ccc(Br)cc2)C1 (stereo unspecified),"inconclusive [inhibitor, single point]",
COc1ccc2cc3c(N)c(C(=O)N4CCCC4)sc3nc2c1,active: 20.6 µM,
Cc1ccnc2nc(C(=O)OCC(=O)N(Cc3ccccc3)C(C)(C)C)nn12,"inconclusive [inhibitor, partial curve, poor fit]",
COc1ccc(C)cc1NS(=O)(=O)c1ccc2c(c1)CCCN2C(C)=O,"inconclusive [inhibitor, partial curve]",
COCCCNS(=O)(=O)c1ccc(Oc2ncc(C(F)(F)F)cc2Cl)cc1,,inconclusive: -34.6% [inhibitor]
Cc1cccc(-n2nnnc2SCC(=O)NC2CCCC2)c1,"inconclusive [inhibitor, partial curve]",
COCCN1CC(O)=C(c2nc3ccccc3c(=O)[nH]2)C1=N,"inconclusive [inhibitor, partial curve]",
O=S(=O)(c1ccc2c(c1)OCCO2)N1CCC(c2nc3ccccc3s2)CC1,"inconclusive [inhibitor, single point]",
Cc1nnc(SCc2nc3sc(C(=O)O)c(C)c3c(=O)[nH]2)s1,"inconclusive [inhibitor, full curve]",
CCOc1ccc2nc(SCC(=O)c3ccc(Cl)s3)sc2c1,"inconclusive [inhibitor, single point]",
Cc1ccc(/C=N/N2CCN(C3c4ccccc4-c4ccccc43)CC2)s1,"inconclusive [inhibitor, single point]",
COc1ccccc1Cc1c(-c2ccc(OC)c(OC)c2)nc2cc(C)c(Br)c(C)n12,"inconclusive [inhibitor, single point]",
Cc1nc(N2CCN(c3ccccn3)CC2)c2c(C)c(C(=O)Nc3ccc(Br)cc3C)sc2n1,"inconclusive [inhibitor, single point]",
COc1ccc(-c2nc(SCC(=O)NCC3CCCO3)c(-c3ccc(C)cc3)[nH]2)cc1OC (stereo unspecified),"inconclusive [inhibitor, single point]",
Cn1c(=O)[nH]c(=O)c2c1nc(Br)n2CCSc1nnnn1-c1ccccc1,"inconclusive [inhibitor, partial curve]",
Cc1cc(C)cc(NCc2cc(=O)oc3cc(C)c(O)cc23)c1,"inconclusive [inhibitor, partial curve, poor fit]",
Cn1c(=O)c2c(nc(Sc3ncccn3)n2Cc2ccc(Cl)cc2)n(C)c1=O,"inconclusive [inhibitor, partial curve, poor fit]",
O=C(C[C@H]1C[C@@H]2c3cc(NC(=O)c4cccnc4)ccc3O[C@@H]2[C@H](CO)O1)NCc1ccncc1,,inactive: -16.2%
O=C1C=C(Nc2ccc(Cl)cc2)CC(c2ccc(Cl)cc2)C1 (stereo unspecified),"inconclusive [inhibitor, single point]",
C#CCN(C)CCCOc1ccc(Cl)cc1Cl,"inconclusive [inhibitor, single point]",
CCCC(=O)Nc1ccc(Cl)c(NC(=S)NC(=O)c2ccco2)c1,,inconclusive: -32.6% [inhibitor]

SMILES,Potency,"activity change, negative = growth inhibition"
CN(C)S(=O)(=O)c1cccc(C(=O)NCC2CCCCC2)c1,"inconclusive [inhibitor, partial curve]",
C=CCn1c(-c2ccc(Cl)cc2)c[nH]c1=S,"inconclusive [inhibitor, single point]",
CC(C)(C)S(=O)(=O)/C(C#N)=N/Nc1ccc(Cl)cc1,active: 14.6 µM,
COc1ccccc1CNCc1cc(=O)oc2c(C)c(C)ccc12,"inconclusive [inhibitor, single point]",
CCCn1c(=S)[nH]c2cc(C(=O)N(CCO)Cc3ccccc3)ccc2c1=O,,inactive: -24.2%
COc1ccc(CNC(=O)N2CCN(c3cccc(C)c3C)CC2)cc1OC,"inconclusive [inhibitor, single point]",
CCOC(=O)c1sc2nc(C)nc(SC(C)C(=O)N(C)c3ccccc3)c2c1C (stereo unspecified),"inconclusive [inhibitor, single point]",
O=C(CN1CCC(n2nnc3cc(F)ccc32)CC1)Nc1ccccc1N1CCOCC1,active: 18.4 µM,
C[C@H](CO)N1C[C@H](C)[C@@H](CN(C)CC2CC2)Oc2c(NC(=O)C3CC3)cccc2C1=O,"inconclusive [inhibitor, single point]",
CC(=O)c1c(C)[nH]c(C(=O)OCC(=O)N2c3ccccc3NC(=O)C2(C)C)c1C,"inconclusive [inhibitor, partial curve]",
COc1ccc(/C(N)=N/OC(=O)c2ccc(C)c([N+](=O)[O-])c2)cc1OC,"inconclusive [inhibitor, single point]",
Nc1nc(CSC(=S)N2CCOCC2)nc(Nc2ccccc2)n1,"inconclusive [inhibitor, single point]",
O=C(Nc1cc(C(F)(F)F)ccc1N1CCOCC1)c1ccc(Br)o1,"inconclusive [inhibitor, single point]",
Cc1cccc(C(=O)N2CCC(C)(C(=O)NS(=O)(=O)C3CC3)C2)c1C (stereo unspecified),,inactive: 7.53%
O=C1CCC[C@@H]2Cc3nc4cc5c(cc4cc3[C@@H]3CCN1[C@H]23)OCO5,active: 15.8 µM,
CCOC(=O)c1ccc(S(=O)(=O)N2CCC(C(=O)NCC3CCCCC3)CC2)cc1,,inactive: -0.498%
Nc1sc(-c2ccccc2)cc1C(=O)NCCN1CCOCC1,"inconclusive [inhibitor, single point]",
O=C(CC12CC3CC(CC(C3)C1)C2)NCC(=O)N1CCc2ccccc2C1,"inconclusive [inhibitor, single point]",
O=C1CC(N2CCN(c3ccccc3)CC2)C(=O)N1c1ccc2c(c1)OCO2 (stereo unspecified),"inconclusive [inhibitor, single point]",
COc1ccc(NC(=O)N2CCN(Cc3nc4ccc(C)cc4o3)CC2)cc1OC,,inactive: -7.28%
